The record followed here is publication PMC12136788.

The labels stand for the following.
T1: UNK ZnF1-3 (human, UniProt Q9C0B0 31-174)
T1 sequence: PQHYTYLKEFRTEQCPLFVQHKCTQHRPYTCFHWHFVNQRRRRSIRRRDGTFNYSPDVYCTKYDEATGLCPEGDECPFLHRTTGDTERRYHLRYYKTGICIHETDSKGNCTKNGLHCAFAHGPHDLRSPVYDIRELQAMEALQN

B1: chr5:71490253:71490254:+_ENSG00000131711_ENST00000296755|hu_hu|FALSE|FALSE (ssRNA)
RNA: GGGAGUUCUACAGUCCGACGAUCCUUGAUGUUUGGCUCUGGAUUUUUGAGAUUUUCAGGUACAUUGAGAAAUACAACUCCUAAGUCAGGGGAGAUGAGGUUUUUCAUCCAGUCACUAUUUGUGGUGGAGCCCUGGGACUGUUCCAACAGAGGAUUGAGCAUCA
B2: chr7:138125181:138125182:+_ENSMUSG00000006205_ENSMUST00000006367|mus_mus|motif|central (ssRNA)
RNA: GGGAGUUCUACAGUCCGACGAUCGAUGCCCGCCGUCACCUUCAAGGUGUUAAUCCCAAUCACCUCGCCAUCCAGGUUUACGGACGGGCCUCCGGAAUUUCCAUAAUUGAUGAUAGCGUCUGUCUGAAUGUAGUCCAUAUCGGACAACAGAGGAUUGAGCAUCA
B3: chr5:138699528:138699529:+_ENSG00000120727_ENST00000265192|hu_hu|FALSE|FALSE (ssRNA)
RNA: GGGAGUUCUACAGUCCGACGAUCGUCAUCUUCAUGAGAAUGACCGUUAAUAAUCACAUCUUCAUUGAUGAUGCUUGGGCUAGUACUGCUGCGACUUGGAUCUUUCAUGGCUGAUGUUGGUUGUCGUUUUUAACCCAAUGCACACAACAGAGGAUUGAGCAUCA
B4: chr7:44244176:44244177:+_ENSG00000106636_ENST00000223369|hu_mus|hu_hu_hu_mus_False|18_58 (ssRNA)
RNA: GGGAGUUCUACAGUCCGACGAUCACUGUCGCUCCGGACGUAGACAUGGCAAAGAUACUCUUGUUCUUUGACAGAAGCUCUAGUGCCUUUCCCCGAGCGUUCCACAAUCAGUUGACUCGUGAAGGUCAUGAAUUCCUGCACACUCAACAGAGGAUUGAGCAUCA
B5: chr1:163112212:163112213:-_ENSG00000143248_ENST00000313961|hu_hu|hu_hu_hu_mus_False|8_78 (ssRNA)
RNA: GGGAGUUCUACAGUCCGACGAUCUUUUAUUAUCAGUAAGAGUGAGUUACAUACUAGAUAAAGUAUUGGAUACAAUAAUCAGGAAACAAACACUAUUGGUCCAGAAUUUAAAACUUUAUGAGCGAAGGCUUACAAAUGGACUUACAACAGAGGAUUGAGCAUCA
B6: chr2:114393739:114393740:-_ENSMUSG00000057147_ENSMUST00000102542|mus_hu|motif|central (ssRNA)
RNA: GGGAGUUCUACAGUCCGACGAUCGUUAGAUGAUAUCAUCUCUCUGAGCAAAUCUUCCUGGUUUCUCUGCCAAAGAUAAGCGGAAGGCUGGAGAUUAAGCCUUUUACACACAUUUUCCACUCGAAUACGCUGAUAGUCAGAAAGCAACAGAGGAUUGAGCAUCA
B7: chr3:9412954:9412955:+_ENSG00000134077_ENST00000452837|hu_mus|hu_hu_hu_mus_False|38_78 (ssRNA)
RNA: GGGAGUUCUACAGUCCGACGAUCGGUUGAUAUCUCUUCUUUGAUGGCUGGAUUUUCAUAAUAAUCUAAGAUAUGUGAAUCUGAAGUGCUGCUGGCAAACUCUUUUUUACCAUCUUUCUCAUCUGCUUUGUCUCCUUGUCCACACAACAGAGGAUUGAGCAUCA
B8: chr5:111654635:111654636:+_ENSMUSG00000033209_ENSMUST00000156290|mus_mus|FALSE|FALSE (ssRNA)
RNA: GGGAGUUCUACAGUCCGACGAUCGGAGGCUUCCCAGCUCUCCGUAGGCCUGAGCUUUAUUGGAGGCCUCCCCGAGCUCAUGGGCCACCACCAGCCUCUUCUCGAAGCACACGAGGGCCUGCUGCAGGCUUCCCGUCGCCCUGUCAACAGAGGAUUGAGCAUCA
B9: chr7:123332509:123332510:-_ENSG00000106299_ENST00000223023|hu_mus|motif|central (ssRNA)
RNA: GGGAGUUCUACAGUCCGACGAUCUGAGCAGGACACGGGCCGGCUAUUCUGUUCCACUUUUUUCAGCUGAGCACCCUCUCGGAUUUGAUCCAAAAGAGCUGCUUUGUUUCCUGAAGGAGCUGGAACUUGAUGGUCACCAUCAGACAACAGAGGAUUGAGCAUCA
B10: chr11:121178941:121178942:+_ENSG00000109929_ENST00000392789|hu_hu|FALSE|FALSE (ssRNA)
RNA: GGGAGUUCUACAGUCCGACGAUCACAUAUUUUUACUCUUAUUAAAUAAUGGUUUUAAAUAAUAAUCAUCACAAUGUUUAGCUACAUAAUCCCAGAUCUGGAUUAAAUCAUGGUGAUAUCGAUAUUUUUAAAUUCCAAUUUAUUCAACAGAGGAUUGAGCAUCA
B11: chr1:16667403:16667404:+_ENSMUSG00000025940_ENSMUST00000065373|mus_hu|FALSE|FALSE (ssRNA)
RNA: GGGAGUUCUACAGUCCGACGAUCUGUCAUAACCCAUUAGAUGGAUAUAGUCUUCACGGUUUGGAAAGAGCACUGGAUUAACUAACAGUGAUUUUGUUUUAGCAUAAAAUGUGGUAAAUACAUGUUUAGCAUCUGGAAUCUUCACAACAGAGGAUUGAGCAUCA
B12: chr8:92090715:92090716:+_ENSG00000155100_ENST00000285420|hu_hu|motif|central (ssRNA)
RNA: GGGAGUUCUACAGUCCGACGAUCUUUCAGUUGAUCUUCAAUGGCUUUAUACAUACAGUGGCCAUCAGAUGGAAUCUGUUUAAUUUCGGACUGUCUAGCUGCCAAUAUUUGAGCAAGUUUCUCACUUUCCAUAUGUCUGGCUCCCAACAGAGGAUUGAGCAUCA
B13: chr22:35691198:35691199:+_ENSG00000100281_ENST00000216106|hu_mus|motif|central (ssRNA)
RNA: GGGAGUUCUACAGUCCGACGAUCACAGUCCUGUGAGAAGCUUAGCUGUGACAGCAGUCGGGCUAUGGGAAGGAGUUCCCGGGGAUGCCAGCUGGCUACAUGGUCCCCAAAGGUUUACUGUGAUGCUGCCUCGUUCCAUCCAGGCAACAGAGGAUUGAGCAUCA
B14: chr1:60041781:60041782:+_ENSMUSG00000041040_ENSMUST00000036540|mus_hu|mus_mus_mus_hu_False|1_58 (ssRNA)
RNA: GGGAGUUCUACAGUCCGACGAUCAAGUUUACAAUAGUAAAGUAAAUGCAGUAGUGGCAAAUUUUCUUUUAUUUUCCUUCCUAAAAGAAAAUCUUUAUAACCCAGUCCUAGUCUUGGACAUAGUGAAAGCUAUAAAUGCCACUGCAACAGAGGAUUGAGCAUCA

This is one part of the list.

The experiment has as its target T1, UNK ZnF1-3. Nature of the experiment: nsRBNS (natural sequence RNA bind-n-seq); RBNS binding buffer (assumed for nsRBNS): 25 mM Tris pH 7.5, 150 mM KCl, 3 mM MgCl2, 0.01% Triton X-100, 500 ug/ml BSA, 20 U/ml SUPERase-In, 4 C; UNK is unkempt and MSI1 is Musashi-1; names of the RNAs are library labels; protein concentration not given here; high values mean tight binding.
As to B1, the binding signal was 0.783 enrichment R. B2 showed a binding signal of 0.641 enrichment R. Regarding B3, the binding signal was found to be 0.46 enrichment R. On to B4, for which the binding signal was 0.517 enrichment R. For B5, the binding signal was 0.812 enrichment R. B6 showed a binding signal of 1.04 enrichment R.

B7 gave a binding signal of 0.488 enrichment R. Molecule B8 registered a binding signal of 0.586 enrichment R.

B9: the binding signal was determined as 0.739 enrichment R. For B10, the binding signal worked out at 0.983 enrichment R. With B11 the figure was 0.749 enrichment R; with B12, 0.65 enrichment R.

B13 yielded a binding signal of 1.1 enrichment R. To B14 belongs 0.633 enrichment R.
